# About 2,200 (0.71%) of roughly 310,000 compounds showed an effect of 50% or more. The effect is printed as a negative number. Some of the results follow.
# Target: human ether-à-go-go-related gene (hERG) potassium channel (human, UniProt Q12809)
# Test: primary screen, population patch clamp on CHO cells stably expressing hERG
# Chain of human ether-à-go-go-related gene (hERG) potassium channel (Q12809 whole entry, looked up): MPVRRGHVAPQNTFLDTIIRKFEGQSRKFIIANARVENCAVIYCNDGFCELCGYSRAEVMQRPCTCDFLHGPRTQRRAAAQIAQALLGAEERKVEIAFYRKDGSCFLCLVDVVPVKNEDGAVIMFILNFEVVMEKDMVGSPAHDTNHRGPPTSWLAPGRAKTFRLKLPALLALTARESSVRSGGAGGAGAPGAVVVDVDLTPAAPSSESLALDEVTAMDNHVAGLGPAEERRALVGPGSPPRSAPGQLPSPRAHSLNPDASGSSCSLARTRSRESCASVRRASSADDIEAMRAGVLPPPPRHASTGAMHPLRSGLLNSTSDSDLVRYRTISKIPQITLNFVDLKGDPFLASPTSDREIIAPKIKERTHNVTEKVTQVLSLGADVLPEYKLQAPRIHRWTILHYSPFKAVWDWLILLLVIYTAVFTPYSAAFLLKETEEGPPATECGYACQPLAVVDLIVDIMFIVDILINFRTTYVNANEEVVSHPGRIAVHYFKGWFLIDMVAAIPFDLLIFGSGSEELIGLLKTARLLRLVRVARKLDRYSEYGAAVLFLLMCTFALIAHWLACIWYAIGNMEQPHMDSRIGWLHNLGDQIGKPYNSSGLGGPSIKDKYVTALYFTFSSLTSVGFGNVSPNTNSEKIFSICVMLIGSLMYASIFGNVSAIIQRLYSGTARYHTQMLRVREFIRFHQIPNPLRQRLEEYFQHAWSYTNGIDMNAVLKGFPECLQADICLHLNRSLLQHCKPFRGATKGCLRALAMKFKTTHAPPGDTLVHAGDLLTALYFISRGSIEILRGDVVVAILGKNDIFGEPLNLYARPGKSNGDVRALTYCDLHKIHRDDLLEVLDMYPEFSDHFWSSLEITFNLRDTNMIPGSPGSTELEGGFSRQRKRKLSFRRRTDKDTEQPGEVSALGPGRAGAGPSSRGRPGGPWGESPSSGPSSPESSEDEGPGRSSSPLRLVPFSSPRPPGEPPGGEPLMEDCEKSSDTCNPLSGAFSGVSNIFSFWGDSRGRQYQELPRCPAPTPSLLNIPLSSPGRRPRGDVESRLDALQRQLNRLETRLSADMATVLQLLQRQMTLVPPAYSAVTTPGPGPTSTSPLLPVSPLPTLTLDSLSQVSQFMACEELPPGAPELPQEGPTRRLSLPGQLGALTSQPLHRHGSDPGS
row,Structure (SMILES),"hERG current change (%, negative = inhibition) at 1uM"
1,Cc1onc(-c2ccccc2)c1C(=O)OCC(=O)Nc1cc(S(=O)(=O)N2CCOCC2)ccc1Cl,8.47%
2,CCc1nnc(SCC(=O)NCCC2=CCCCC2)nc1CC,8.71%
3,CC(C)(C)CC(=O)NCCc1csc(-c2ccccc2)n1,5.89%
4,Cc1ccc(S(=O)(=O)N2CCC(NC(=O)c3cccnc3)CC2)cc1Cl,8.08%
5,CN(c1cccc(NC(=O)COc2ccccc2)c1)S(C)(=O)=O,4.12%
6,CC(C)(C)c1ccc(-c2nc3n(c(=O)c2C#N)CCS3)cc1,4.45%
7,COc1cccc(C2=NOC(C(=O)N3CCC4(CC3)OCCO4)C2)c1 (stereo not drawn),-2.21%
8,CCN(CC)C(=O)CN(c1cc(Cl)ccc1OC)S(=O)(=O)c1ccc(C)c([N+](=O)[O-])c1,15.6%
9,COc1ccc(CCNC(=O)c2c(Cl)ccc(Cl)c2OC)cc1OC,-0.859%
10,COc1ccc(NC(=O)c2ccc(C(=O)c3ccccc3)o2)cc1,13.6%
11,Cc1cccc(-c2noc(CN(C(C)C)S(=O)(=O)c3ccc(F)cc3)n2)c1,7.56%
12,COc1ccc(/C=C/c2c(-c3cccc(C)c3)oc3ccc(-c4ccc5c(c4)OCO5)cc23)cc1,11.5%
13,CCCCCN(C(=O)CN(C)Cc1ccc(OC)cc1OC)c1c(N)n(CCCC)c(=O)[nH]c1=O,6.56%
14,O=C(Cn1nc(-c2ccccc2F)ccc1=O)Nc1ccc(S(=O)(=O)N2CCCCCC2)cc1,15%
15,COc1ccc(C(=O)OCC(=O)Nc2ccc(F)cc2F)cc1OC,15.3%
16,COc1ccc(C(=O)/C=C2\Sc3ccccc3N2C)cc1,10.8%
17,O=C(CCCC(=O)OCC(F)(F)C(F)F)Nc1ccc(NC(=O)CCCC(=O)OCC(F)(F)C(F)F)cc1,16.4%
18,Cc1nnsc1C(=O)N1CCN(c2cc(C(F)(F)F)ccn2)CC1,2.07%
19,CCC(C)Nc1ccc(NC(C)CC)cc1 (stereo not drawn),10.9%
20,CC(C)(C)c1ccc(S(=O)(=O)N2CCN(CCC#N)CC2)cc1,10.1%
21,Nc1ncnc2c1nc(Br)n2[C@@H]1O[C@@H]2COP(=O)([O-])O[C@H]2[C@H]1O.[Na+],10.9%
22,O=C(O)/C=C\C(=O)O.O=[N+]([O-])c1ccc2nc(N3CCNCC3)ccc2c1,1.34%
23,Cc1ccc(NP(=O)(Nc2ccc(C)cc2)Oc2ccccc2)cc1,15.8%
24,Cc1ccc(CNC(=O)c2ccccc2NC(=O)C2=CSCCO2)cc1,29.6%
25,Cc1cccc(C(=O)NC2CCN(S(=O)(=O)c3ccccc3)CC2)c1,8.48%
26,CCN1C(=O)CSc2ccc(C(=O)NCc3ccccc3OC)cc21,3.87%
27,CC(CN1CCN(C)CC1)OC(=O)c1ccc(Cl)cc1.Cl (stereo not drawn),-5.19%

row,Structure (SMILES),"hERG current change (%, negative = inhibition) at 1uM"
1,CCN(CC(=O)Nc1ccccc1C(F)(F)F)C(=O)COc1cccc2c1OC(C)(C)C2,8.31%
2,Cc1ccc(S(=O)(=O)CCN2CCC(n3cccc3)CC2)cc1,12.2%
3,CCC(CO)Nc1ccc([N+](=O)[O-])c2cccnc12 (stereo not drawn),-0.746%
4,CCOC(=O)C1CCN(C(=O)C2CC(=O)N(c3ccc(C)cc3)C2)CC1 (stereo not drawn),-1.63%
5,O=C(Nc1ccccc1C(F)(F)F)C(O)(c1ccccc1)C1CCCCC1 (stereo not drawn),13.1%
6,Cl.OC(COC(c1ccc(Cl)cc1)c1ccc(Cl)cc1)CN1CCc2ccccc2C1 (stereo not drawn),-6.99%
7,OCCNC(=S)NC1CCCCC1,6.49%
8,COc1ccc(S(=O)(=O)N(CC(=O)Nc2ccc(S(=O)(=O)N3CCOCC3)cc2)c2ccccc2)cc1,12%
9,NC(=O)c1cc2ccccc2o/c1=N\NC(=O)c1ccco1,3.6%
10,O=C(O)/C=C\C(=O)Nc1ccc(N2CCN(c3ccc(F)cc3)CC2)cc1,1.25%
11,COc1ccc(N2CCN(C(=O)CCCn3c(=O)[nH]c4cc(Cl)ccc4c3=O)CC2)cc1,15.9%
12,CCOc1ccccc1C(=O)OCC(=O)Nc1nnc(-c2ccccc2)o1,-3.82%
13,COc1ccccc1N(CN1CCCC1=O)C(=O)c1c(F)cccc1F,-0.165%
14,CC(NC(=O)c1ccc(F)cc1)c1nc2ccccc2n1Cc1ccccc1F (stereo not drawn),15.8%
15,O=C(CN1C(=O)NC2(CCCCC2)C1=O)N1CCN(S(=O)(=O)c2ccccc2)CC1,14.7%
16,Cc1ccc(CN2CCC(CNC(=O)c3ccc(NC(=O)C4=CSCCO4)cc3)CC2)cc1,2.92%
17,O=C(O)C(=O)O.OC(CNCc1ccccc1)Cn1ccc2ccccc21 (stereo not drawn),4.11%
18,COc1ccc(NC(=O)CCCn2c(=O)c3sccc3n(Cc3ccccc3C)c2=O)cc1,-2.98%
19,CC1(C)CC(=O)C(C=NCCN2CCN(C(=S)NC3CCCCC3)CC2)=C(O)C1,-1.15%
20,O=C(N/N=C/c1cccc(Cl)c1Cl)Nc1ccccc1,3.9%
21,CC(C)Oc1ccc(S(=O)(=O)N2CCOCC2)cc1NC(=O)C(C)Oc1ccc(F)cc1 (stereo not drawn),19.7%
22,CN(C)/C=C(\C=O)c1cccc(Cl)c1,6.18%
23,CCCC(=O)N1CCN(c2ccc(NC(=O)c3cccs3)cc2Cl)CC1,-22.1%
24,CCCc1oc(C(=O)O)cc1CN1CCCC1.Cl,3.77%
25,CCn1cc(CNC(=O)c2cccc([N+](=O)[O-])c2)c(C)n1,-7.6%
26,Cc1ccc(CN2CCN(C(=O)CCN3C(=O)c4ccccc4C3=O)CC2)cc1,-4%
27,Cn1nc(C(=O)Nc2ccccc2)c2c1-c1ccccc1S(=O)(=O)C2,2.76%

# From PMC4336329 (PLoS ONE, 2015)
